Measured values from patent US9550792B2, “Polycyclic substituted pyrazole kinase activity inhibitors and use thereof” (priority 2013, dated 2017).

Tested on: large cell lung cancer cell line H460
Assay: Anti-tumor activity in vitro, MTT method
Settings: Homo sapiens, NCI-H460, 48 h, read-out: H460 (IC50/μM)
From the text: The inhibitory activities against various cancer cell lines, such as breast cancer cell line MDA231, stomach cancer cell line MGC803, stomach cancer cell line BSG823, leukemia cell line K562, breast cancer cell line MCF-7, resistant breast cancer cell line MCF-7, leukemia cell line NB4, liver cancer cell line HEPG2, umbilical cord vein endothelium cell line HUVEC, lung cancer cell line A549, colon cancer cell line HCT116, large cell lung cancer cell line H460, liver cancer cell line 7721, lung cancer cell line H1229 and the like are determined with MTT method.
MTT method: the dehydrogenase associated with NADP in the mitochondria of living cell is capable of reducing exogenous MTT into insoluble bluish violet crystal (Formazan), which is precipitated in the cell. […] DMSO or Triple liquid (10% SDS-5% isobutanol-0.01 mol/L HCl) is used to dissolve the crystal in the cell. The OD determined at 570 nm by a microplate reader can reflect the amount of the living cell indirectly.
Procedures: the tumor cells in logarithmic growth phase are plated on 96 well plates and incubated for 24 h, to which is added the sample for screening (as for suspended cells, the sample can be added directly). […] The crystal is dissolved with DMSO and the detection is performed on a microplate reader.

Structure (SMILES) | IC50
CN1CCN(Cc2ccc(NC(=O)c3n[nH]cc3Nc3ncnc4sccc34)cc2)CC1 [Compound I-1, 4-(4-thieno[2,3-d]pyrimidinylamino)-N-(4-((4-methyl-1-piperazinyl)methyl)phenyl)-1H-3-pyrazole carboxamide] | 2.72 µM
O=C(NC1CCNCC1)c1[nH]ncc1NC(=O)c1c(Cl)cccc1Cl [AT-7519, reference compound] | 5.63 µM
